In all, about 200,000 compounds went through this assay and about 4,500 (2.2%) were called active. This list was built around the results that the source calls inconclusive (neither active nor inactive); the mix of calls is not that of the screen. Calls come from the whole dose curve; as a rule, active = well fitted inhibition curve with a large enough effect; inconclusive = small, poorly fitted or top-dose-only effect, or effect the other way; inactive = flat fitted curve, though single readings scatter. Potencies of inconclusive entries are doubtful fits and often do not repeat.
Molecular target: Cruzipain (Trypanosoma cruzi) (UniProt P25779)
UniProt P25779, sequence (P25779 whole entry, looked up): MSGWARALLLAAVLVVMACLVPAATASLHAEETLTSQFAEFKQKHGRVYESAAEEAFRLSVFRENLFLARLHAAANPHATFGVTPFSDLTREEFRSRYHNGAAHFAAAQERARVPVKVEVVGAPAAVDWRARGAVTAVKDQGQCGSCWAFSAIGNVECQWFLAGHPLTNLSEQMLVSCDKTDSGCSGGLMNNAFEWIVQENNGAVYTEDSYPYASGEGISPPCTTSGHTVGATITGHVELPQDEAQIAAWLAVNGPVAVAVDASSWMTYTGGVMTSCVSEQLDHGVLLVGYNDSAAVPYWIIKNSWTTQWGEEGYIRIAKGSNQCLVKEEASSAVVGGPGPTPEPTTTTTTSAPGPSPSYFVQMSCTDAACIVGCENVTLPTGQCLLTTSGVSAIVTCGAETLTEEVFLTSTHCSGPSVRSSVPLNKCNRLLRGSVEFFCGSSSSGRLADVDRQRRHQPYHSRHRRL
Assay: qHTS Assay for Promiscuous and Specific Inhibitors of Cruzain (without detergent); note: nearly all actives have a fitted effect of over 40% in size;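 for max response, negative = inhibition: plate controls were enzyme without inhibitor for no effect and buffer without enzyme for full effect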
Details: purified cruzain, Z-FR-AMC fluorescence, no detergent
Summary of the method: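 Detergent-free condition (0.00005% Triton X-100) in acetate buffer pH 5.5 with DTT. 1.5 nM enzyme and compound were pre-mixed 15 min, then 2 uM Z-FR-AMC substrate added; reaction progress from fluorescence change between first and third reads (60 s).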
Potency is the fitted concentration of half-maximal effect; tags give direction and shape of the fitted curve.

SMILES | Potency | max response, negative = inhibition
CCCCOc1ccc(-c2nnn(CC(=O)Nc3ncc(CC(=O)OCC)s3)n2)cc1 | inconclusive: 31.6 µM [activator, single point] | 
C=CCn1c(CSc2nc3ccccc3s2)nnc1SCC(=O)NCc1ccco1 | inconclusive: 39.8 µM [activator, single point] | 
CCCCN(CC)CCCNC(=O)c1ccc2c(c1)NC(=O)CN2C |  | inactive: -5.7%
CCCCc1ccc(NC(=O)CSC2=C(C#N)C(c3ccco3)C3=C(CCCC3=O)N2)cc1 (stereo not drawn) |  | inactive: -13.2%
CCOC(=O)c1noc2ncn(CC(=O)Nc3ccccc3OC)c(=O)c12 | inconclusive: 0.0398 µM [activator, full curve, poor fit] | 
COc1ccccc1CN(Cc1cc2cc(C)cc(C)c2[nH]c1=O)Cc1nnnn1CC1CCCO1 (stereo not drawn) | inconclusive: 39.8 µM [activator, single point] | 
COC(=O)CSc1nc(C2CC2)nc2ccccc12 |  | inactive: -5.14%
Cc1ccc(NC(=O)Cn2c(-c3nonc3N)nc3ccccc32)c(Br)c1 |  | inactive: -8.36%
Cc1cc(C)cc(C(=O)N2CC(=O)Nc3ccc(Br)cc3C2c2ccccc2)c1 (stereo not drawn) |  | inactive: -3.84%
CCCCOc1ccc(C2C(=O)N(C3CCCCC3)CC(=O)N2CCCC)cc1 (stereo not drawn) |  | inactive: 2.35%
O=C(c1cccs1)n1nc(-c2ccccc2)nc1NCc1ccco1 | inconclusive: 12.6 µM [inhibitor, partial curve] | 
CC1(C)Cc2nc3oc4c(NCc5ccccc5)ncnc4c3cc2CO1 | inconclusive: 25.1 µM [activator, single point] | 
CCc1ccc2oc(C(=O)NCc3ccccc3)cc(=O)c2c1 |  | inactive: -4.42%
COC(=O)c1cc(OC)c(OC)cc1NC(=O)c1ccc(OC)cc1 | inconclusive: 39.8 µM [activator, single point] | 
O=C(Nc1ccc2nc(-c3ccccc3)[nH]c2c1)c1cccs1 |  | inactive: -9.04%
CNc1sc(C(=O)c2ccccc2F)c(N)c1-c1nc2ccccc2s1 | inconclusive: 31.6 µM [inhibitor, single point] | 
N#CC1=C(N)N2C(=C(C#N)C1c1ccccc1)Sc1ccccc12 (stereo not drawn) | active: 12.6 µM | 
CCc1cccc(CC)c1NC(=O)c1ccccc1CCc1ccccc1 | inconclusive: 39.8 µM [inhibitor, single point] | 
COc1ccc(NC(=O)N2CCCC3(CCN(C(=O)c4cc(C(F)(F)F)cc(C(F)(F)F)c4)CC3)C2)cc1 | inconclusive: 39.8 µM [activator, single point] | 
O=C(O)c1cccc(SSc2cccc(C(=O)O)c2)c1 |  | inactive: -0.14%
CCCCOc1ccc(S(=O)(=O)NNC(=O)C2Cc3c(ccc4ccccc34)O2)cc1 (stereo not drawn) | inconclusive: 25.1 µM [activator, single point] | 

SMILES | Potency | max response, negative = inhibition
COc1ccc(NC(=O)c2ccc(CN(c3cc(Cl)ccc3C)S(=O)(=O)c3ccccc3)cc2)cc1OC | inconclusive: 39.8 µM [inhibitor, single point] | 
Cn1cc(-c2cc3n(n2)CCC(=O)N3CCCC(=O)NCc2ccccc2Cl)c2ccccc21 | inconclusive: 20 µM [activator, partial curve] | 
CCCc1nnc(NC(=O)C(CC)OC(=O)c2cc(C)nc3ccccc23)s1 (stereo not drawn) | inconclusive: 39.8 µM [activator, single point] | 
O=C(C1CCC(Cn2c(=O)c3sccc3n(Cc3ccc(F)cc3)c2=O)CC1)N1CCOCC1 (stereo not drawn) | inconclusive: 39.8 µM [activator, single point] | 
CN1C(=O)C2(c3ccccc31)N(c1ccc(Br)cc1)C(=O)CS2(=O)=O (stereo not drawn) | active: 10 µM | 
COc1ccc2c(c1)-c1nc(NC(=O)c3cc(OC)c(OC)c(OC)c3)sc1CC2 | inconclusive: 20 µM [activator, partial curve] | 
CCOC(=O)c1cccc(NC(=O)[C@H](CSCc2ccccc2)N2Cc3ccccc3C2=O)c1 | inconclusive: 3.16 µM [inhibitor, single point] | 
COc1ccc(N(CC(=O)Nc2ccc(C)c(C)c2)S(=O)(=O)c2c(C)n[nH]c2C)cc1 | inconclusive: 31.6 µM [activator, single point] | 
Cc1ccc(-n2c(=O)c3ccc(C(=O)NCc4ccccc4Cl)cc3n(CC(=O)Nc3ccc(C)cc3C)c2=O)cc1 |  | inactive: -0.103%
CC(=O)Nc1cc(C(=O)N(C)Cc2ccco2)ccc1Sc1ccc(Cl)cc1 | inconclusive: 39.8 µM [activator, single point] | 
O=C(O)[C@@H](c1ccccc1)N1Cc2ccccc2C1=O | active: 15.8 µM | 
CCN(CC)S(=O)(=O)c1ccc2[nH]c(=O)cc(C(=O)Nc3ccc(C)c(S(=O)(=O)N(CC)CC)c3)c2c1 | inconclusive: 31.6 µM [activator, single point] | 
O=c1c2ccccc2nnn1CSc1nc2ccccc2c(=O)n1Cc1ccco1 | active: 10 µM | 
FC(F)(F)c1ccc(-c2noc(-c3ccccc3)c2I)cc1 | inconclusive: 25.1 µM [inhibitor, partial curve, poor fit] | 
CCOc1ccc(NC(=O)C(=O)NCC(c2cccnc2)N2CCc3ccccc32)cc1 (stereo not drawn) |  | inactive: -7.34%
O=C(Nc1cccc(Cl)c1)Nc1nnc(CC2=CCCCC2)s1 | inconclusive: 20 µM [inhibitor, single point] | 
COc1ccc(-c2nc(SCC(=O)NC3CCCC3)c(-c3ccc(C)cc3)[nH]2)cc1OC | inconclusive: 39.8 µM [activator, single point] | 
COc1ccc(N(Cc2cccs2)C(=O)Nc2cccc(Cl)c2)cc1 |  | inactive: 3.53%
CCOc1ccc2nc(NC(=O)CSc3nnc(-c4ccncc4)n3CC3CCCO3)sc2c1 (stereo not drawn) | inconclusive: 39.8 µM [activator, single point] | 
COc1ccc(CNC(=O)Cc2csc3nc(-c4ccc(F)cc4)cn23)cc1 |  | inactive: -17.9%
COc1cc(/C=C2\N=C(c3ccccc3)OC2=O)ccc1OCc1c(C)no[n+]1[O-] | inconclusive: 31.6 µM [inhibitor, single point] | 

SMILES | Potency | max response, negative = inhibition
CC(=O)N(CC(O)CN(C(C)=O)c1c(I)c(C(=O)NC[C@@H](O)CO)c(I)c(C(=O)NC[C@@H](O)CO)c1I)c1c(I)c(C(=O)NC[C@@H](O)CO)c(I)c(C(=O)NC[C@@H](O)CO)c1I |  | inactive: -5.57%
Cc1cccc(NC(=O)CNc2cc(C)ccc2C)c1 | active: 20 µM | 
OC[C@@H]1[C@@H](c2ccc(F)cc2)C(c2ccc(F)cc2)=NN1c1ccccc1 | active: 20 µM | 
Cc1ccc(C)c(N2CCN(C(=O)c3cc(S(=O)(=O)N4CCOCC4)ccc3F)CC2)c1 | inconclusive: 31.6 µM [activator, single point] | 
Cc1c(C(=O)Nc2cccc(C(F)(F)F)c2)oc2ccc(S(=O)(=O)N3CCOCC3)cc12 | inconclusive: 3.98 µM [activator, full curve] | 
COc1ccc(C2C=C(c3ccc(Br)s3)Nc3ncnn32)cc1OC (stereo not drawn) | inconclusive: 39.8 µM [activator, single point] | 
Cc1ccc(Nc2nnc(SCC(=O)Nc3cccc(S(=O)(=O)N4CCCCC4)c3)s2)cc1 | inconclusive: 39.8 µM [inhibitor, single point] | 
CCn1nnnc1SCC(=O)Nc1ccc(OCc2ccccc2)cc1 | inconclusive: 39.8 µM [inhibitor, single point] | 
COc1ccc(NC(=O)C(CC(C)C)NC(=O)C2CCCCC2)cc1 (stereo not drawn) |  | inactive: 2.97%
CCn1cc(C(=O)N2CCc3ccccc3C2)c(=O)c2cc(S(=O)(=O)N3CCCCC3)ccc21 | inconclusive: 39.8 µM [activator, single point] | 
CCOc1ccc(NC(=O)COc2ccc(C(=O)NC3CCCc4ccccc43)cc2OC)cc1 (stereo not drawn) | inconclusive: 39.8 µM [inhibitor, single point] | 
COc1ccc(Nc2sc(C(=O)Nc3cccc(Cl)c3)c(N)c2C(=O)Nc2ccccc2OC)cc1 | inconclusive: 5.01 µM [inhibitor, full curve] | 
Cc1ccc(S(=O)(=O)c2nc(S(C)(=O)=O)sc2NCc2ccc3c(c2)OCO3)cc1 | inconclusive: 39.8 µM [inhibitor, single point] | 
COc1cccc(/C=N/Nc2ncnc3scc(-c4ccccc4)c23)c1O | inconclusive: 31.6 µM [activator, single point] | 
COc1ccc(C(=O)Nc2scc(-c3ccc(Cl)cc3Cl)c2C(N)=O)cc1 | inconclusive: 31.6 µM [inhibitor, single point] | 
O=C(COC(=O)CNC(=O)c1sc2ccccc2c1Cl)Nc1c(Cl)cc(Cl)cc1Cl | inconclusive: 31.6 µM [inhibitor, single point] | 
Cc1cc(N(CCO)Cc2ccccc2)n2nc(-c3ccc(C(C)(C)C)cc3)nc2n1 | inconclusive: 20 µM [activator, partial curve] | 
CCOC(=O)c1c(-c2ccc(OCC)cc2)csc1NC(=O)CCN1C(=O)c2ccccc2C1=O | inconclusive: 20 µM [inhibitor, partial curve] | 
C=CC[n+]1c(-c2ccc(OCC)cc2)csc1NNC(=O)Nc1ccccc1 | inconclusive: 31.6 µM [inhibitor, single point] | 
O=C(CNC(=O)OCc1ccccc1)Oc1cc2oc(=O)cc(-c3ccccc3)c2cc1Cl | inconclusive: 39.8 µM [inhibitor, single point] | 
COc1ccc(N(C(=O)c2ccc(C)cc2)S(=O)(=O)c2cccs2)cc1 | inconclusive: 39.8 µM [inhibitor, single point] | 
